In PubChem BioAssay AID485294 (National Center for Advancing Translational Sciences (NCATS), 2010):
In all, about 370,000 compounds went through this assay and about 150 (0.041%) were called active. The shares of active, inactive and inconclusive entries below differ from those in the screen. The call rests on the fitted dose curve; in most records, active means well fitted inhibition curve with a large enough effect; inconclusive means small, poorly fitted or top-dose-only effect; inactive means flat fitted curve, though single readings scatter. Potencies of inconclusive entries are left out as doubtful fits.

Each compound was assayed against Beta-lactamase (Escherichia coli (strain K12)) (UniProt P00811) (assay: qHTS Inhibitors of AmpC Beta-Lactamase (assay with detergent)). Details: AmpC hydrolysis of nitrocefin, absorbance 480 nm, 0.01% Triton; activity change, negative = inhibition: at 114 µM (top of the series).
Sequence of UniProt P00811 (P00811 whole entry, looked up): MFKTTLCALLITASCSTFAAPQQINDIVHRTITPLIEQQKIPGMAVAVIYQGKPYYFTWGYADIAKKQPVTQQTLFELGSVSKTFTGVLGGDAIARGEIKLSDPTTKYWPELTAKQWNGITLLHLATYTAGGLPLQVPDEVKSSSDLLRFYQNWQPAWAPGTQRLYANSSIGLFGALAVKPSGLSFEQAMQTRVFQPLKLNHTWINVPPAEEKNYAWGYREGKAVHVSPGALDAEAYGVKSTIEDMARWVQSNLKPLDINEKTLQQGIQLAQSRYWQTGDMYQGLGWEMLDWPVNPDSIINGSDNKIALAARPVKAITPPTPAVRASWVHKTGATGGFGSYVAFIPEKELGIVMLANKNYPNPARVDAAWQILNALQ
Summary of the method: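 20 mM phosphate pH 7.0 + 0.01% (detergent screen) or 0.0001% Triton X-100; 5.3 nM AmpC reagent; cpd preinc 15 min RT; nitrocefin (800 uM stock) to start; A480 q20 s × 4 min; Activity was normalised to no-enzyme and no-compound control wells.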
Further: nearly all actives have a fitted effect of over 25% in size.
Potency means the concentration at half of the fitted maximal effect; tags describe the fitted curve by direction and shape.
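Wherever activity change, negative = inhibition is given: 0% = no-compound wells and -100% = no-enzyme wells.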

| Structure (SMILES) | activity change, negative = inhibition | Potency |
| --- | --- | --- |
| Clc1ncccc1-c1nnn(-c2ccccc2)n1 | inactive: 7.83% | – |
| O=C(O)CN1CCN(Cc2ccc(F)cc2Cl)C1=O | inactive: -2.61% | – |
| Cc1ccc(N/C=C2/Sc3ccccc3NC2=O)cc1 | inactive: 6.36% | – |
| COc1ccccc1N1CCN(CC(=O)Nc2cccc(F)c2)CC1 | – | inconclusive [inhibitor, single point] |
| CCOCCNC(=O)c1ccccc1C(=O)NCCOCC | – | inconclusive [inhibitor, full curve, poor fit] |
| CC(=O)N(c1ccc(Br)cc1)C1C=CS(=O)(=O)C1 (stereo unspecified) | – | inconclusive [inhibitor, full curve] |
| O=C(N/N=C/c1cccc(Oc2ccccc2)c1)c1cccc(O)c1 | – | inconclusive [inhibitor, full curve, poor fit] |
| CCC(C)(C)n1nnnc1CN1CCN(c2nc3cc(OC)ccc3cc2C#N)CC1 | – | inconclusive [inhibitor, full curve, poor fit] |
| COc1ccc(C(=O)OCn2nnc3ccccc3c2=O)cc1OC | inactive: -3.71% | – |
| CCOC(=O)Cc1csc(NS(=O)(=O)c2cccc([N+](=O)[O-])c2)n1 | – | inconclusive [inhibitor, full curve, poor fit] |
| Nc1nc(SCC(=O)Nc2ccc(OCc3ccccc3)cc2)n[nH]1 | inactive: 6.78% | – |
| Cc1noc2nc(C(=O)O)nc(N3CCCCC3)c12 | inactive: -2.61% | – |
| Cc1ccccc1OCC(=O)OCC(=O)Nc1ccc2c(c1)OCCO2 | inactive: -0.207% | – |
| Cc1cc(C)n2nc(C(=O)OCC(=O)c3ccc(F)cc3)nc2n1 | – | inconclusive [inhibitor, full curve] |
| O=c1c(CN2CCN(Cc3ccccc3)CC2)coc2ccc(Cl)cc12 | – | inconclusive [inhibitor, full curve] |
| COc1cccc(C(=O)Nc2ccc(NC(=O)c3cc4ccccc4o3)c(OC)c2)c1 | – | inconclusive [inhibitor, partial curve, poor fit] |
| Cc1ccc(C(c2c(O)nc3n(c2=O)CCS3)c2c(O)nc3n(c2=O)CCS3)cc1 | – | inconclusive [inhibitor, full curve, poor fit] |
| COc1ccc(C2N(c3ccc(F)cc3)C(=O)C3CCCN32)cc1 (stereo unspecified) | – | inconclusive [inhibitor, partial curve, poor fit] |
| COc1ccc2c(CC(=O)Nc3ccc(OC)nc3)coc2c1 | – | inconclusive [inhibitor, partial curve] |
| Fc1ccc(C2=CCN(C(c3ccc(Cl)cc3)c3nnnn3Cc3ccccc3)CC2)cc1 (stereo unspecified) | – | inconclusive [inhibitor, partial curve] |
| Cc1ccc(S(=O)(=O)N(CCC(=O)N2CCOCC2)c2ccccc2)cc1 | – | inconclusive [inhibitor, full curve, poor fit] |
| CCN1CCN(c2cc(C)c3cc(NC(=O)c4ccc(Br)o4)ccc3n2)CC1 | inactive: 3.23% | – |
| CCC(OC(=O)C(NC(=O)c1ccccc1)c1ccccc1)C(=O)Nc1cc(C)on1 (stereo unspecified) | – | inconclusive [inhibitor, full curve] |
| CC(C)(C)c1cc(NC(=O)c2cccc([N+](=O)[O-])c2)no1 | inactive: 6.55% | – |

| Structure (SMILES) | activity change, negative = inhibition | Potency |
| --- | --- | --- |
| COc1ccc(N(CC(=O)NCCSc2ccccn2)S(=O)(=O)c2ccc(C)cc2)cc1OC | inactive: -4.68% | – |
| CCc1ccc(S(=O)(=O)/N=C2\C=CC(=O)c3ccccc32)cc1 | inactive: -4.03% | – |
| CCOc1ccc(C2CC(c3ccc(F)cc3)n3ncnc3N2)cc1 (stereo unspecified) | – | inconclusive [inhibitor, partial curve, poor fit] |
| Cc1sc2ncn(CC(=O)NCCCC(=O)N3CCN(Cc4ccc5c(c4)OCO5)CC3)c(=O)c2c1C | – | inconclusive [inhibitor, full curve, poor fit] |
| C=CCN1C(=O)NC(=O)/C(=C/c2c(CCN(C)C(=O)c3ccccc3)cc3c(c2OC)OCO3)C1=O | – | inconclusive [inhibitor, full curve, poor fit] |
| S=C(NCCSCc1ccccc1Cl)Nc1ccccc1 | – | inconclusive [inhibitor, partial curve] |
| COc1cccc(NC(=O)COC(=O)COc2ccccc2[N+](=O)[O-])c1 | inactive: -9.69% | – |
| COc1ccc(C(=O)N2CCc3cc(OC)c(OC)cc3C2COc2ccccc2OC)cc1 (stereo unspecified) | inactive: 4.97% | – |
| COc1ccc(N2CCN(C3CCCN(Cc4ccc(F)cc4Cl)C3)CC2)cc1 (stereo unspecified) | – | inconclusive [inhibitor, partial curve, poor fit] |
| CCCn1cnc2sc(C(N)=O)c(C)c2c1=O | – | inconclusive [inhibitor, single point] |
| COC(=O)Cc1c(C)c2ccc(OCC(=O)N(C)C3CCS(=O)(=O)C3)cc2oc1=O (stereo unspecified) | inactive: -7.48% | – |
| Nc1ccccc1C#Cc1ccccc1 | inactive: -2.64% | – |
| COc1ccccc1C(=O)Nc1nnc(S(=O)(=O)N2CCCCCC2)s1 | – | inconclusive [inhibitor, full curve] |
| COc1ccc(-c2nc(CNS(=O)(=O)c3ccc(C)cc3)cs2)cc1 | inactive: -7.29% | – |
| FC(F)(F)c1ccc(Oc2ccc3ccccc3c2Br)nc1 | – | inconclusive [inhibitor, single point] |
| COCCNC(=S)N(CCCN(C)C)Cc1cc2cc3c(cc2[nH]c1=O)OCCO3 | – | inconclusive [inhibitor, partial curve] |
| CCn1nnc(-c2ccccc2NC(=O)c2cc(OC)c(OC)c(OC)c2)n1 | – | inconclusive [inhibitor, full curve, poor fit] |
| CCCN(CCC)C(=O)Cn1ccc(=N)c2ccccc21 | – | inconclusive [inhibitor, full curve] |
| O=C(c1ccc(Br)o1)N1CCN(Cc2ccccc2Cl)CC1 | – | inconclusive [inhibitor, partial curve] |
| CCn1c(SCC(=O)N2CCCc3ccccc32)nnc1-c1ccco1 | – | inconclusive [inhibitor, full curve, poor fit] |
| Cc1nc(SCC(=O)c2ccccc2)c(C#N)c(-c2ccco2)c1C(=O)NCc1ccco1 | inactive: -2.93% | – |
| CCc1ccc(-c2nnn(Cc3nn[nH]n3)n2)cc1 | – | inconclusive [inhibitor, full curve] |
| Cc1ccc(NC(=O)COC(=O)CCn2c(C)csc2=O)c([N+](=O)[O-])c1 | – | inconclusive [inhibitor, partial curve, poor fit] |
| N#Cc1cccc(C(=O)OCc2cccc(S(=O)(=O)N3CCOCC3)c2)c1 | – | inconclusive [inhibitor, full curve, poor fit] |

| Structure (SMILES) | activity change, negative = inhibition | Potency |
| --- | --- | --- |
| Cc1ccc(Nc2nc(Oc3ccc(OCc4ccccc4)nn3)nc(N3CCOCC3)n2)cc1 | – | inconclusive [inhibitor, full curve] |
| CCOC(=O)c1sc(NC(=O)c2ccc3nc[nH]c3c2)nc1C | – | inconclusive [inhibitor, full curve, poor fit] |
| Cc1csc(NC(=O)C2C3C=CC(O3)C2C(=O)O)n1 (stereo unspecified) | – | inconclusive [inhibitor, full curve, poor fit] |
| COc1cc(/C=C/C(=O)c2ccc3c(c2)OCCO3)cc(Br)c1OCC(=O)N(C)C | inactive: -14.7% | – |
| O=C(COC(=O)COc1ccc2ccccc2c1)NCC(F)(F)F | – | inconclusive [inhibitor, full curve, poor fit] |
| O=C(c1ccc(F)cc1F)N1CCCC(c2nc(-c3cccs3)no2)C1 (stereo unspecified) | inactive: -4.98% | – |
| CNc1nc(NCc2ccccc2)c2ccccc2n1 | – | inconclusive [inhibitor, full curve, poor fit] |
| O=C1Cc2ccccc2C(=O)N1CCc1ccccc1 | inactive: -14.4% | – |
| CCCCCC(=O)N1CCN(c2ccc(C(C)=O)cc2F)CC1 | – | inconclusive [inhibitor, full curve, poor fit] |
| Cc1cccc(C(=O)NCC(=O)NCCSc2ccc(Br)cc2)c1 | – | inconclusive [inhibitor, full curve, poor fit] |
| COc1ccccc1NC(=O)C1=C(C)NC(SCC(=O)c2ccc(C)cc2)=C(C#N)C1c1ccco1 (stereo unspecified) | inactive: 1.32% | – |
| COc1ccc(-c2nc3ccccc3n2Cc2ccc(Cl)cc2)cc1 | inactive: 12.2% | – |
| O=C1N(Cc2ccc(F)cc2Cl)c2ccccc2C12OCCCO2 | – | inconclusive [inhibitor, full curve, poor fit] |
| Cc1cccc(/C=C2\Sc3ccc(C(=O)N4CCC(C)CC4)cc3N(C)C2=O)c1 | – | inconclusive [inhibitor, full curve] |
| Cc1ccc(-n2nnnc2-c2cnc3ccc(Cl)cc3c2-c2ccccc2)cc1 | inactive: -5.61% | – |
| Cc1ccc(C)c(-n2nnnc2SCC(=O)c2ccc3c(c2)NC(=O)CO3)c1 | – | inconclusive [inhibitor, single point] |
| O=C(NCC(=O)N(Cc1cccs1)C(C(=O)NC1CCCC1)c1ccncc1)c1ccco1 (stereo unspecified) | inactive: -6.36% | – |
| COc1cc(/C=C2\CCC(C3CCCC3)C2=O)ccc1OC(C)C (stereo unspecified) | – | inconclusive [inhibitor, partial curve] |
| O=C(Nc1ccc(Cl)cc1)Nc1ccccc1C(=O)NCc1ccco1 | inactive: -3.77% | – |
| O=C(N/N=C/c1cnc(N2CCOCC2)s1)c1ccccc1 | inactive: -7.67% | – |
| COc1ccc(-c2nc(CSCC(=O)NC3CCCc4ccccc43)c(C)o2)cc1 (stereo unspecified) | – | inconclusive [inhibitor, full curve, poor fit] |
| CCN(CC(=O)NCc1ccc(Cl)cc1)C(=O)/C=C/c1ccc(Cl)c([N+](=O)[O-])c1 | inactive: -1.71% | – |
| COC(=O)c1cc(-c2ccc(C)o2)nc2ccccc12 | inactive: -0.444% | – |
